# Laboratory results from the supplement of paper PMC8728848.
# This is one part of the list.
# B1: Angptl4 (Homo sapiens), Q9BY76 (protein)
# chain: MSGAPTAGAALMLCAATAVLLSAQGGPVQSKSPRFASWDEMNVLAHGLLQLGQGLREHAERTRSQLSALERRLSACGSACQGTEGSTDLPLAPESRVDPEVLHSLQTQLKAQNSRIQQLFHKVAQQQRHLEKQHLRIQHLQSQFGLLDHKHLDHEVAKPARRKRLPEMAQPVDPAHNVSRLHRLPRDCQELFQVGERQSGLFEIQPQGSPPFLVNCKMTSDGGWTVIQRRHDGSVDFNRPWEAYKAGFGDPHGEFWLGLEKVHSITGDRNSRLAVQLRDWDGNAELLQFSVHLGGEDTAYSLQLTAPVAGQLGATTVPPSGLSVPFSTWDQDHDLRRDKNCAKSLSGGWWFGTCSHSNLNGQYFRSIPQQRQKLKKGIFWKTWRGRYYPLQATTMLIQPMAAEAAS
# How the values were obtained:
# Experiment in all cases: glycan array binding signal (z-score within array); higher = stronger binding
# Conditions in all cases: glycan notation: IUPAC condensed, linker removed
# [1] = target: Man(a1-3)[Man(a1-6)]Man(a1-6)[Man(a1-2)Man(a1-3)]Man(b1-4)GlcNAc(b1-4)GlcNAc
# In short: (§1)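 The Consortium for Functional Glycomics database supplied 3228 glycan arrays, of which those lacking an available protein sequence were dropped. The binding signal, a within-array Z-score, was averaged across arrays of the same protein sequence and across linkers. Negative scores can be read as non-binding.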
# [2] = target: Man(a1-3)[Man(a1-6)]Man(a1-6)[Man(a1-3)]Man
# In short: as §1
# [3] = target: Man(a1-3)[Man(a1-6)]Man(a1-6)[Man(a1-3)]Man(b1-4)GlcNAc(b1-4)GlcNAc
# In short: as §1
# [4] = target: Man(a1-3)[Man(a1-6)]Man(b1-4)GlcNAc(b1-4)GlcNAc
# In short: as §1
# Man(a1-6)Man = target: Man(a1-6)Man
# In short: as §1
# Man(b1-4)GlcNAc = target: Man(b1-4)GlcNAc
# In short: as §1
# Neu5Ac(a2-3)Gal = target: Neu5Ac(a2-3)Gal
# In short: as §1
# [5] = target: Neu5Ac(a2-3)Gal(b1-3)GalNAc
# In short: as §1
# [6] = target: Neu5Ac(a2-3)Gal(b1-3)GalNAc(b1-3)Gal(a1-4)Gal(b1-4)Glc
# In short: as §1
# [7] = target: Neu5Ac(a2-3)Gal(b1-3)GalNAc(b1-3)Gal(b1-4)GlcNAc
# In short: as §1
# [8] = target: Neu5Ac(a2-3)Gal(b1-3)GalNAc(b1-4)[Neu5Ac(a2-3)]Gal(b1-4)Glc
# In short: as §1
# [9] = target: Neu5Ac(a2-3)Gal(b1-3)GalNAc6S
# In short: as §1
# [10] = target: Neu5Ac(a2-3)Gal(b1-3)GlcNAc
# In short: as §1
# [11] = target: Neu5Ac(a2-3)Gal(b1-3)GlcNAc(b1-3)Gal(b1-3)GlcNAc
# In short: as §1
# [12] = target: Neu5Ac(a2-3)Gal(b1-3)GlcNAc6S
# In short: as §1
# [13] = target: Neu5Ac(a2-3)Gal(b1-3)[Fuc(a1-4)]GlcNAc
# In short: as §1
# [14] = target: Neu5Ac(a2-3)Gal(b1-3)[Fuc(a1-4)]GlcNAc(b1-3)Gal(b1-4)[Fuc(a1-3)]GlcNAc
# In short: as §1
# [15] = target: Neu5Ac(a2-3)Gal(b1-3)[Neu5Ac(a2-3)Gal(b1-4)]GlcNAc
# In short: as §1
# [16] = target: Neu5Ac(a2-3)Gal(b1-3)[Neu5Ac(a2-6)]GalNAc
# In short: as §1
# Neu5Ac(a2-3)Gal(b1-4)Glc = target: Neu5Ac(a2-3)Gal(b1-4)Glc
# In short: as §1
# [17] = target: Neu5Ac(a2-3)Gal(b1-4)GlcNAc
# In short: as §1
# [18] = target: Neu5Ac(a2-3)Gal(b1-4)GlcNAc(b1-2)Man(a1-3)[GlcNAc(b1-2)Man(b1-4)GlcNAc(b1-2)Man(a1-6)]Man(b1-4)GlcNAc(b1-4)GlcNAc
# In short: as §1
# [19] = target: Neu5Ac(a2-3)Gal(b1-4)GlcNAc(b1-2)Man(a1-3)[Neu5Ac(a2-6)Gal(b1-4)GlcNAc(b1-2)Man(a1-6)]Man(b1-4)GlcNAc(b1-4)GlcNAc
# In short: as §1
# [20] = target: Neu5Ac(a2-3)Gal(b1-4)GlcNAc(b1-3)Gal(b1-3)GlcNAc
# In short: as §1
# [21] = target: Neu5Ac(a2-3)Gal(b1-4)GlcNAc(b1-3)Gal(b1-4)GlcNAc
# In short: as §1
# [22] = target: Neu5Ac(a2-3)Gal(b1-4)GlcNAc(b1-3)Gal(b1-4)GlcNAc(b1-3)Gal(b1-4)GlcNAc
# In short: as §1
# [23] = target: Neu5Ac(a2-3)Gal(b1-4)GlcNAc(b1-3)Gal(b1-4)[Fuc(a1-3)]GlcNAc
# In short: as §1
# [24] = target: Neu5Ac(a2-3)Gal(b1-4)GlcNAc(b1-6)[Gal(b1-3)]GalNAc
# In short: as §1
# [25] = target: Neu5Ac(a2-3)Gal(b1-4)GlcNAc(b1-6)[Neu5Ac(a2-3)Gal(b1-3)]GalNAc
# In short: as §1
# [26] = target: Neu5Ac(a2-3)Gal(b1-4)GlcNAc6S
# In short: as §1
# [27] = target: Neu5Ac(a2-3)Gal(b1-4)[Fuc(a1-3)]GlcNAc
# In short: as §1
# [28] = target: Neu5Ac(a2-3)Gal(b1-4)[Fuc(a1-3)]GlcNAc(b1-3)Gal
# In short: as §1
# [29] = target: Neu5Ac(a2-3)Gal(b1-4)[Fuc(a1-3)]GlcNAc(b1-3)Gal(b1-4)GlcNAc
# In short: as §1
# [30] = target: Neu5Ac(a2-3)Gal(b1-4)[Fuc(a1-3)]GlcNAc(b1-3)Gal(b1-4)[Fuc(a1-3)]GlcNAc(b1-3)Gal(b1-4)[Fuc(a1-3)]GlcNAc
# In short: as §1
# [31] = target: Neu5Ac(a2-3)Gal(b1-4)[Fuc(a1-3)]GlcNAc(b1-6)[Gal(b1-3)]GalNAc
# In short: as §1
# [32] = target: Neu5Ac(a2-3)Gal(b1-4)[Fuc(a1-3)]GlcNAc6S
# In short: as §1
# [33] = target: Neu5Ac(a2-3)Gal6S(b1-4)GlcNAc
# In short: as §1
binder,measurement,setting,value
B1,glycan array binding signal (z-score),[1],5.32
same,glycan array binding signal (z-score),[2],-0.212
same,glycan array binding signal (z-score),[3],0.001
same,glycan array binding signal (z-score),[4],-0.118
same,glycan array binding signal (z-score),Man(a1-6)Man,0.013
same,glycan array binding signal (z-score),Man(b1-4)GlcNAc,-0.486
same,glycan array binding signal (z-score),Neu5Ac(a2-3)Gal,-0.218
same,glycan array binding signal (z-score),[5],-0.334
same,glycan array binding signal (z-score),[6],-0.626
same,glycan array binding signal (z-score),[7],0.083
same,glycan array binding signal (z-score),[8],-0.37
same,glycan array binding signal (z-score),[9],-0.74
same,glycan array binding signal (z-score),[10],0.89
same,glycan array binding signal (z-score),[11],-0.555
same,glycan array binding signal (z-score),[12],7.07
same,glycan array binding signal (z-score),[13],-0.272
same,glycan array binding signal (z-score),[14],-0.555
same,glycan array binding signal (z-score),[15],-0.227
same,glycan array binding signal (z-score),[16],-0.122
same,glycan array binding signal (z-score),Neu5Ac(a2-3)Gal(b1-4)Glc,-0.307
same,glycan array binding signal (z-score),[17],-0.156
same,glycan array binding signal (z-score),[18],-0.621
same,glycan array binding signal (z-score),[19],-0.917
same,glycan array binding signal (z-score),[20],-0.262
same,glycan array binding signal (z-score),[21],-0.92
same,glycan array binding signal (z-score),[22],-0.603
same,glycan array binding signal (z-score),[23],-0.334
same,glycan array binding signal (z-score),[24],-0.496
same,glycan array binding signal (z-score),[25],-0.58
same,glycan array binding signal (z-score),[26],-0.609
same,glycan array binding signal (z-score),[27],-0.335
same,glycan array binding signal (z-score),[28],-0.402
same,glycan array binding signal (z-score),[29],0.32
same,glycan array binding signal (z-score),[30],0.762
same,glycan array binding signal (z-score),[31],-0.006
same,glycan array binding signal (z-score),[32],-0.445
same,glycan array binding signal (z-score),[33],-0.282
